Test results as given in the supplement of paper PMC4967469.

How the values were obtained:
Assay in all cases: Viability of human cancer cell lines after 72 h of drug (GDSC screen)
KU-55933 = compound: O=c1cc(-c2cccc3c2Sc2ccccc2S3)oc(N2CCOCC2)c1 [KU-55933]; settings: top dose 10 µM
Protocol: (§1)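 Human cancer cell lines in 384-well plates, medium with 10% serum, drug for 72 h over a 256-fold dose range (nine 2-fold or five 4-fold steps up to the top dose). Adherent lines were fixed and stained with the nucleic acid dye Syto60, suspension lines read with resazurin; signal relative to control wells, capped at 0 and 100%. One two-parameter sigmoid per drug and line, fitted in a mixed model over all curves with the slope shared within a line.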

CHIR-99021 = compound: Cc1cnc(-c2cnc(NCCNc3ccc(C#N)cn3)nc2-c2ccc(Cl)cc2Cl)[nH]1 [CHIR-99021]
Protocol: as §1

Zibotentan = compound: COc1nc(C)cnc1NS(=O)(=O)c1cccnc1-c1ccc(-c2nnco2)cc1 [Zibotentan]; settings: top dose 20 µM; top dose inferred
Protocol: as §1

Thapsigargin = compound: C/C=C(/C)C(=O)O[C@H]1C(C)=C2[C@H]([C@@H]1OC(=O)CCCCCCC)[C@@](C)(OC(C)=O)C[C@H](OC(=O)CCC)[C@@]1(O)[C@H]2OC(=O)[C@@]1(C)O [Thapsigargin]; settings: top dose 0.512 µM; top dose inferred
Protocol: as §1

Cytarabine = compound: Nc1ccn([C@@H]2O[C@H](CO)[C@@H](O)[C@@H]2O)c(=O)n1 [Cytarabine]; settings: top dose 2 µM
Protocol: as §1

ABT-888 = compound: C[C@]1(c2nc3c(C(N)=O)cccc3[nH]2)CCCN1 [ABT-888]; settings: top dose 5 µM; top dose inferred
Protocol: as §1

ABT-869 = compound: Cc1ccc(F)c(NC(=O)Nc2ccc(-c3cccc4[nH]nc(N)c34)cc2)c1 [ABT-869]; settings: top dose 1.024 µM; top dose inferred
Protocol: as §1

CP466722 = compound: COc1cc2ncnc(-n3nc(-c4ccccn4)nc3N)c2cc1OC [CP466722]; settings: top dose 16 µM; top dose inferred
Protocol: as §1

QL-X-138 = compound: C=CC(=O)Nc1cc(-n2c(=O)ccc3cnc4ccc(-c5cn[nH]c5)cc4c32)ccc1C [QL-X-138]; settings: top dose 10.24 µM; top dose inferred
Protocol: as §1

MPS-1-IN-1 = compound: COc1cc(N2CCC(O)CC2)ccc1Nc1cc(Nc2ccccc2S(=O)(=O)C(C)C)c2cc[nH]c2n1 [MPS-1-IN-1]; settings: top dose 20 µM; top dose inferred
Protocol: as §1

GSK269962A = compound: CCn1c(-c2nonc2N)nc2cnc(Oc3cccc(NC(=O)c4ccc(OCCN5CCOCC5)cc4)c3)cc21 [GSK269962A]; settings: top dose 5 µM; screen: GDSC drug entry 1192; top dose inferred
Protocol: as §1

(5Z)-7-Oxozeaenol = compound: COc1cc(O)c2c(c1)/C=C/C[C@H](O)[C@H](O)C(=O)/C=C\C[C@H](C)OC2=O [(5Z)-7-Oxozeaenol]; settings: top dose 10 µM; top dose inferred
Protocol: as §1

[1] = top dose 2.56 µM, screen: GDSC drug entry 154
[2] = top dose 10 µM, screen: GDSC drug entry 1241, top dose inferred

Cell Line | AUC (KU-55933) | pIC50 (KU-55933) | AUC (CHIR-99021; [1]) | pIC50 (CHIR-99021; [1]) | AUC (Zibotentan) | pIC50 (Zibotentan) | AUC (Thapsigargin) | pIC50 (Thapsigargin) | AUC (Cytarabine) | pIC50 (Cytarabine) | AUC (ABT-888) | pIC50 (ABT-888) | AUC (ABT-869) | pIC50 (ABT-869) | AUC (CP466722) | pIC50 (CP466722) | AUC (QL-X-138) | pIC50 (QL-X-138) | AUC (MPS-1-IN-1) | pIC50 (MPS-1-IN-1) | AUC (CHIR-99021; [2]) | pIC50 (CHIR-99021; [2]) | AUC (GSK269962A) | pIC50 (GSK269962A) | AUC ((5Z)-7-Oxozeaenol) | pIC50 ((5Z)-7-Oxozeaenol)
SAT (head and neck, adherent) | 0.943 | < 5.00 | 0.935 | < 5.59 | 0.974 | < 4.70 | 0.477 | 7.57 | 0.844 | < 5.70 | 0.882 | < 5.30 | 0.966 | < 5.99 | 0.826 | < 4.80 | 0.953 | < 4.99 | 0.84 | < 4.70 |  |  |  |  |  | 
SK-MG-1 (glioma, adherent) | 0.977 | < 5.00 |  |  | 0.985 | < 4.70 |  |  | 0.68 | 6.40 | 0.985 | < 5.30 | 0.97 | < 5.99 | 0.987 | < 4.80 | 0.916 | < 4.99 | 0.957 | < 4.70 | 0.976 | < 5.00 | 0.933 | < 5.30 | 0.7 | 5.64
SNU-61 (large intestine, adherent) | 0.985 | < 5.00 |  |  | 0.972 | < 4.70 |  |  | 0.951 | < 5.70 | 0.985 | < 5.30 | 0.963 | < 5.99 | 0.811 | 4.92 | 0.821 | 5.06 | 0.833 | 4.72 | 0.983 | < 5.00 | 0.977 | < 5.30 | 0.983 | < 5.00
SNU-81 (large intestine, adherent) | 0.906 | < 5.00 |  |  | 0.982 | < 4.70 |  |  | 0.846 | < 5.70 | 0.756 | 5.65 | 0.973 | < 5.99 | 0.691 | 5.38 | 0.677 | 5.62 | 0.982 | < 4.70 | 0.972 | < 5.00 | 0.93 | < 5.30 | 0.735 | 5.42
SNU-407 (large intestine, adherent) | 0.965 | < 5.00 |  |  | 0.973 | < 4.70 |  |  | 0.812 | 5.89 | 0.974 | < 5.30 | 0.983 | < 5.99 | 0.807 | 5.00 | 0.764 | 5.36 | 0.788 | 4.98 | 0.981 | < 5.00 | 0.666 | 6.01 | 0.506 | 6.19
SNU-C5 (large intestine, adherent) | 0.906 | < 5.00 |  |  | 0.985 | < 4.70 |  |  | 0.696 | 6.32 | 0.985 | < 5.30 | 0.974 | < 5.99 | 0.936 | < 4.80 | 0.887 | < 4.99 | 0.939 | < 4.70 | 0.894 | < 5.00 | 0.96 | < 5.30 | 0.634 | 5.82
STS-0421 (soft tissue, adherent) | 0.982 | < 5.00 | 0.982 | < 5.59 |  |  | 0.267 | 8.22 | 0.82 | 5.85 | 0.982 | < 5.30 |  |  | 0.747 | 5.23 |  |  |  |  | 0.959 | < 5.00 | 0.884 | < 5.30 | 0.593 | 5.93
SW1271 (small cell lung carcinoma, adherent) | 0.977 | < 5.00 | 0.891 | < 5.59 | 0.98 | < 4.70 |  |  | 0.767 | 6.07 | 0.984 | < 5.30 | 0.982 | < 5.99 | 0.748 | 5.23 | 0.599 | 5.90 | 0.848 | 4.73 | 0.857 | < 5.00 | 0.891 | < 5.30 | 0.587 | 5.95
TE-4 (oesophagus, adherent) | 0.932 | < 5.00 |  |  | 0.985 | < 4.70 |  |  | 0.698 | 6.35 | 0.987 | < 5.30 | 0.983 | < 5.99 | 0.962 | < 4.80 | 0.823 | 5.22 | 0.969 | < 4.70 | 0.957 | < 5.00 | 0.902 | < 5.30 | 0.807 | 5.29
TOV-112D (ovary, adherent) | 0.907 | < 5.00 | 0.986 | < 5.59 | 0.976 | < 4.70 | 0.084 | > 8.70 | 0.763 | 6.14 | 0.974 | < 5.30 | 0.971 | < 5.99 | 0.693 | 5.46 |  |  | 0.885 | < 4.70 | 0.984 | < 5.00 | 0.876 | < 5.30 | 0.544 | 6.09
UWB1.289 (ovary, adherent) | 0.932 | < 5.00 |  |  | 0.95 | < 4.70 |  |  | 0.907 | < 5.70 | 0.979 | < 5.30 | 0.975 | < 5.99 | 0.872 | < 4.80 | 0.816 | 5.01 | 0.934 | < 4.70 | 0.948 | < 5.00 | 0.975 | < 5.30 | 0.724 | 5.42
WM35 (melanoma, adherent) | 0.96 | < 5.00 | 0.887 | < 5.59 | 0.974 | < 4.70 | 0.287 | 8.10 | 0.788 | 6.05 | 0.983 | < 5.30 | 0.977 | < 5.99 | 0.985 | < 4.80 |  |  | 0.686 | 5.38 | 0.942 | < 5.00 | 0.983 | < 5.30 | 0.115 | > 7.41

pIC50: −log10 of the molar value. A lower IC50 marks a more sensitive line; fits outside the tested doses are given as limits. AUC sums up the same curve from the lowest dose to the 256-fold higher top dose; it is 1 without any effect and falls as sensitivity rises. For part of these data: A top dose marked as inferred is not printed in the source and was worked back from the curve model. For part of these data: Drugs with an entry number were screened twice under separate entries, and the two screens often disagree.
